{"sequences": {"note": "Amino acid sequences for entries named in this document (tags omitted).", "UniProt O08849": "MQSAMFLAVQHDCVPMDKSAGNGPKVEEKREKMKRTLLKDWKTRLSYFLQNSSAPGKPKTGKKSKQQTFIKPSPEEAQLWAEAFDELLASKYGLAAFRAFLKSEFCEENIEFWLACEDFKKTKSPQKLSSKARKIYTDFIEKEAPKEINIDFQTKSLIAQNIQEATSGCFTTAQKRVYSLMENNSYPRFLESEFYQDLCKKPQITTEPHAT", "UniProt Q8BK26": "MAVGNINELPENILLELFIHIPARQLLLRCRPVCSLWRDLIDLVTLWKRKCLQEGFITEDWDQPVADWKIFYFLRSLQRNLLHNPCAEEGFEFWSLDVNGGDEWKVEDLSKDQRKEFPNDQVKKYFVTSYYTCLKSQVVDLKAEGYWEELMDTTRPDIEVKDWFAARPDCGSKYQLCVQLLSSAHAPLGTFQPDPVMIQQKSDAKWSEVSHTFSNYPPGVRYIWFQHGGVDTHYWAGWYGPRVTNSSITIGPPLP", "UniProt Q16531": "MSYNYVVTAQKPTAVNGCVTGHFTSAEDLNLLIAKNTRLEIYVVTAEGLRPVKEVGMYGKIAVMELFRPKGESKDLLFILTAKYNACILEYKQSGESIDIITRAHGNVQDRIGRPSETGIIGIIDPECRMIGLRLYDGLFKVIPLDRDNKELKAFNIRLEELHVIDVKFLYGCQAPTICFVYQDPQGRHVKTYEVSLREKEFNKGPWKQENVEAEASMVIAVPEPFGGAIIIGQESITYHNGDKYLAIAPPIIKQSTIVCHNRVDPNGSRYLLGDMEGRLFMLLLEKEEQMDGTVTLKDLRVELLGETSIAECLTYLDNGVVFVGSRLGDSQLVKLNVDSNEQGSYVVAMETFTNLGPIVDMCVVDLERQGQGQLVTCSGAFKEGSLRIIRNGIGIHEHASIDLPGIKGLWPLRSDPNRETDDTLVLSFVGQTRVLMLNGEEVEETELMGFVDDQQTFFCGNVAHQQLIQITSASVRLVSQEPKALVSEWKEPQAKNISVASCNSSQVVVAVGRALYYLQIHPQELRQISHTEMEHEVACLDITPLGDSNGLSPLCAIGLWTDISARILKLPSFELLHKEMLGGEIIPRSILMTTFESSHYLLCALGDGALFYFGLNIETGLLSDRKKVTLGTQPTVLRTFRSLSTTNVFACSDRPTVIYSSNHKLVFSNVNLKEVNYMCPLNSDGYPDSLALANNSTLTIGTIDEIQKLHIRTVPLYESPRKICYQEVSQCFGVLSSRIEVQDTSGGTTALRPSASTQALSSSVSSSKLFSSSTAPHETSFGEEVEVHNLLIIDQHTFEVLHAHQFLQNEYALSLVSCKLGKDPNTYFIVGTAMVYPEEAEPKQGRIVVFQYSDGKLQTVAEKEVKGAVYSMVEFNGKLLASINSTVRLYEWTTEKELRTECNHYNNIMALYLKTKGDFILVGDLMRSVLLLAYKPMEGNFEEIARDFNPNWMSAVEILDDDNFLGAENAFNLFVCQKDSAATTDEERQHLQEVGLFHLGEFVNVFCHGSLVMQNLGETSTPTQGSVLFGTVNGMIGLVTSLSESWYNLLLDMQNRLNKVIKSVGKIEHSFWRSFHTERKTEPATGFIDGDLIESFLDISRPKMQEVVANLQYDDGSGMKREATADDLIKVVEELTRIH", "UniProt Q13619": "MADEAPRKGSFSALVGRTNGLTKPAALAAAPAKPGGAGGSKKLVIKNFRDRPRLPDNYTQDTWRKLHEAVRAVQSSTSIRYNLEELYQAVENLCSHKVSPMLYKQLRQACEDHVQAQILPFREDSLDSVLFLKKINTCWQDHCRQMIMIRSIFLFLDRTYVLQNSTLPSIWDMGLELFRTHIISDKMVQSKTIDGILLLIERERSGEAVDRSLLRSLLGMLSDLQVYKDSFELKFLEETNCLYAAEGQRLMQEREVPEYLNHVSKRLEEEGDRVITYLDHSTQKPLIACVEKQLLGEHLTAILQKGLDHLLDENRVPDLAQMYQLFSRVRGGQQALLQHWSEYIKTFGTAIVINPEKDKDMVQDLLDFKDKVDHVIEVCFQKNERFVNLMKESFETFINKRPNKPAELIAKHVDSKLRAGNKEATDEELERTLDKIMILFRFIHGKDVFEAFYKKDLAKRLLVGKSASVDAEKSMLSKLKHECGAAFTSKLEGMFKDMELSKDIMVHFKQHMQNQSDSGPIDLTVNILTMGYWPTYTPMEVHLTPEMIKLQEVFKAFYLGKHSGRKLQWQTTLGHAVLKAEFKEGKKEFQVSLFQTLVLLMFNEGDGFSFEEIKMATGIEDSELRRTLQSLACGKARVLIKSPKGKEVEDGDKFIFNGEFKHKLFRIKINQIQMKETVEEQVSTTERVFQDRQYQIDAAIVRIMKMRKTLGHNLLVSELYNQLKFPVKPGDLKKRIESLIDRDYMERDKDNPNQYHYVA", "UniProt Q13620": "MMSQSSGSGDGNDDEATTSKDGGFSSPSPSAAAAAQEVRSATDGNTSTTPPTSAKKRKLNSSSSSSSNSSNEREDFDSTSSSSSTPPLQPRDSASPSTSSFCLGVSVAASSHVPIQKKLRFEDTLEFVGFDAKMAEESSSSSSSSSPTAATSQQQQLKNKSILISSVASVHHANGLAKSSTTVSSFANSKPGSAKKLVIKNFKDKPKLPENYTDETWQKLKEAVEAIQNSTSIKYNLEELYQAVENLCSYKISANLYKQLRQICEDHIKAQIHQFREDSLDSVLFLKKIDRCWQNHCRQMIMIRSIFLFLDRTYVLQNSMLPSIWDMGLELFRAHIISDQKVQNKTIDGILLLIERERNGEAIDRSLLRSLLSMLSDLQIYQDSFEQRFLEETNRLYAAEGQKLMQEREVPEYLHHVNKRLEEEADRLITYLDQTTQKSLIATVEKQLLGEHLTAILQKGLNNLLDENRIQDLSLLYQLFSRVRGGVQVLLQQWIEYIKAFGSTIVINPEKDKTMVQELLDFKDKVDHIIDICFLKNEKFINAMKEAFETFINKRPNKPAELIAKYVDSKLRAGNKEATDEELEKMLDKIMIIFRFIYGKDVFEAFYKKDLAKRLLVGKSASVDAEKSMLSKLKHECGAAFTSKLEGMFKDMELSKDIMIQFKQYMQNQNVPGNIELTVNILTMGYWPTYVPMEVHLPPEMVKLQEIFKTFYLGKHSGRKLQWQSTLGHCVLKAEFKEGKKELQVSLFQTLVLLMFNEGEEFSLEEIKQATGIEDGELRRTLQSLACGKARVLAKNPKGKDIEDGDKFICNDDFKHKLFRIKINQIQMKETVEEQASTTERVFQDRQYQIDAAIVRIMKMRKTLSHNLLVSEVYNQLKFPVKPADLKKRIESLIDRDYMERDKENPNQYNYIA"}, "source": "paper PMC4430315", "molecules": {"B1": {"name": "FLAG-FBXO44 (F-box protein 44, full length) (protein, UniProt Q9H4M3 1-255)", "chain": "MAVGNINELPENILLELFTHVPARQLLLNCRLVCSLWRDLIDLVTLWKRKCLREGFITEDWDQPVADWKIFYFLRSLHRNLLHNPCAEEGFEFWSLDVNGGDEWKVEDLSRDQRKEFPNDQVKKYFVTSYYTCLKSQVVDLKAEGYWEELMDTTRPDIEVKDWFAARPDCGSKYQLCVQLLSSAHAPLGTFQPDPATIQQKSDAKWREVSHTFSNYPPGVRYIWFQHGGVDTHYWAGWYGPRVTNSSITIGPPLP"}, "B2": {"name": "RGS2-HA (Regulator of G Protein Signaling 2, HA-tagged) (protein, UniProt P41220 1-211)", "chain": "MQSAMFLAVQHDCRPMDKSAGSGHKSEEKREKMKRTLLKDWKTRLSYFLQNSSTPGKPKTGKKSKQQAFIKPSPEEAQLWSEAFDELLASKYGLAAFRAFLKSEFCEENIEFWLACEDFKKTKSPQKLSSKARKIYTDFIEKEAPKEINIDFQTKTLIAQNIQEATSGCFTTAQKRVYSLMENNSYPRFLESEFYQDLCKKPQITTEPHAT"}, "B3": {"name": "RGS2, endogenous in mouse heart (protein, UniProt O08849 1-211)", "chain": "B2 chain with R14V, S22N, H24P, S26V, T54A, A68T, S81A, T156S"}}, "key": {"[1]": {"molecular_target": "T1, FLAG-FBXO44 (F-box protein 44, full length) (UniProt Q9H4M3)", "T1 sequence": "B1 chain", "assay": "co-IP; lysates of transiently transfected HEK-293 cells (HEK-293T in Fig 4A); 1 mg lysate, 1 μg antibody and Protein G-agarose, 2 h at 4°C; lysis buffer 20 mM Tris-HCl pH 7.4, 150 mM NaCl, 2 mM EDTA, 5% glycerol, 1% Triton-X100; Western blot"}, "[2]": {"molecular_target": "T2, RGS2-HA (Regulator of G Protein Signaling 2, HA-tagged) (UniProt P41220)", "T2 sequence": "B2 chain", "assay": "co-IP; lysates of transiently transfected HEK-293 cells (HEK-293T in Fig 4A); 1 mg lysate, 1 μg antibody and Protein G-agarose, 2 h at 4°C; lysis buffer 20 mM Tris-HCl pH 7.4, 150 mM NaCl, 2 mM EDTA, 5% glycerol, 1% Triton-X100; Western blot"}, "[3]": {"molecular_target": "T2, RGS2-HA (Regulator of G Protein Signaling 2, HA-tagged)", "assay": "co-IP; lysates of transiently transfected HEK-293 cells (HEK-293T in Fig 4A); 1 mg lysate, 1 μg antibody and Protein G-agarose, 2 h at 4°C; lysis buffer 20 mM Tris-HCl pH 7.4, 150 mM NaCl, 2 mM EDTA, 5% glycerol, 1% Triton-X100; Western blot", "remark": "listed apart in the source"}, "[4]": {"molecular_target": "T1, FLAG-FBXO44 (F-box protein 44, full length)", "assay": "co-IP; lysates of transiently transfected HEK-293 cells (HEK-293T in Fig 4A); 1 mg lysate, 1 μg antibody and Protein G-agarose, 2 h at 4°C; lysis buffer 20 mM Tris-HCl pH 7.4, 150 mM NaCl, 2 mM EDTA, 5% glycerol, 1% Triton-X100; Western blot", "remark": "listed apart in the source"}, "[5]": {"molecular_target": "T3, FBXO44, endogenous in mouse heart (mouse (endogenous in heart tissue)) (UniProt Q8BK26)", "T3 sequence": "B1 chain with T19I, V21I, N29R, L32P, R53Q, H78Q, R111K, A196V, T197M, R207S", "assay": "co-IP; endogenous proteins from C57/Bl6 mouse whole heart tissue lysate; Protein G-agarose, 2 h at 4°C; Protein A-HRP used for detection of endogenous FBXO44"}}, "note": "Residue numbers refer to the chain shown, from its start. Read-outs that look alike come from different tables or passages of the source. These are yes or no findings as the source states them, for the method shown. In cells and extracts the contact can be indirect. Some entries that bind do so weakly or less than the wild type. For some assays here: Where a sequence is shown, tags or fusion partners need not be part of it."}
{"molecule": "DNA damage binding protein 1 (DDB1) (from UniProt Q16531 1-1140)", "values": [{"measurement": "binding", "setting": "[1]", "result": "binds"}, {"measurement": "binding", "setting": "[2]", "result": "binds"}]}
{"molecule": "Skp1 (from UniProt P63208 1-163)", "values": [{"measurement": "binding", "setting": "[2]", "result": "no binding"}]}
{"molecule": "cullin 4A (CUL4A), endogenous (from UniProt Q13619 1-759) (other; other documents disagree on this pair)", "values": [{"measurement": "binding", "setting": "[1]", "result": "no binding"}]}
{"molecule": "cullin 4B (CUL4B), endogenous (from UniProt Q13620 1-913)", "values": [{"measurement": "binding", "setting": "[1]", "result": "binds"}]}
{"molecule": "B1", "values": [{"measurement": "binding", "setting": "[3]", "result": "binds"}]}
{"molecule": "B2", "values": [{"measurement": "binding", "setting": "[4]", "result": "binds"}]}
{"molecule": "B3", "values": [{"measurement": "binding", "setting": "[5]", "result": "binds"}]}
